First the molecules themselves.
B1: Caulobacter ParB omega fusion; a variant is named by its letters at X, in order, B8GW30 (parent)
chain: MESVVVGEPGMSEGRRGLGRGLSALLGEVDAAPAQAPGEQLGGSREAPIEILQRNPDQPRRTFREEDLEDLSNSIREKGVLQPILVRPSPDTAGEYQIVAGERAWRAAQRAGLKTVPIMVRELDDLAVLEIGIIENVQRADLNVLEEALSYKVLMEKFERTQENIAQTIGKSXSHVANXMRLLXLPDEVQSYLVSGELTAXHARAIAAAADPVALAKQIIEGGLSVRETEALARKAPNLSAGKSKGGRPPRVKDTDTQALESDLSSVLGLDVSIDHRGSTGTLTITYATLEQLDDLCNRLTRGI

The full ranking holds about 81,000 sequences; the median of “one-hybrid fitness for binding parS DNA” is about -0.17, and the highest 2% start at about 0.51. The list shows a part of the results.

This assay covers variants of B1. Briefly: one-hybrid fitness for binding parS DNA (scaled: cognate 1, non-cognate 0); higher = stronger binding. The settings on record: with parS DNA site. An outline of the steps:
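Fitness is the rescaled log change in variant-to-wild-type read ratio, measured by Illumina sequencing of plasmids before and after bacterial one-hybrid selection. The scale puts cognate at 1 and non-cognate at 0. Selection of Caulobacter ParB libraries, four specificity codons randomised, took place in E. coli USO with a HIS3 reporter, site 19 bp from the promoter, over 48 hours at 37°C on M9-minus-histidine with 0.1 mM IPTG and 5 mM 3-AT.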
In the case of NVKW, the “one-hybrid fitness for binding parS DNA” value is ≤ 0.2.

For CKCG, the “one-hybrid fitness for binding parS DNA” value is ≤ 0.2.

As to ADRP, the “one-hybrid fitness for binding parS DNA” value was ≤ 0.2.

In the case of MVKY, the “one-hybrid fitness for binding parS DNA” value is ≤ 0.2.

CAVS: the “one-hybrid fitness for binding parS DNA” value is ≤ 0.2.

Regarding MYLG, the “one-hybrid fitness for binding parS DNA” value is ≤ 0.2.

Turning to ADVE, the “one-hybrid fitness for binding parS DNA” value is ≤ 0.2.

KWAT: the “one-hybrid fitness for binding parS DNA” value was ≤ 0.2.

As to FYTS, the “one-hybrid fitness for binding parS DNA” value was ≤ 0.2.

In the case of SCMC, the “one-hybrid fitness for binding parS DNA” value was ≤ 0.2.

On to PFNV, for which the “one-hybrid fitness for binding parS DNA” value is ≤ 0.2.

On to HYPW, for which the “one-hybrid fitness for binding parS DNA” value is ≤ 0.2.

Take RRLN: the “one-hybrid fitness for binding parS DNA” value is 0.396.

On to AQGT, for which the “one-hybrid fitness for binding parS DNA” value is ≤ 0.2.

With KMCS, the “one-hybrid fitness for binding parS DNA” value is ≤ 0.2.

Consider RHMK, for which the “one-hybrid fitness for binding parS DNA” value was ≤ 0.2.

For the variant KQMN, the “one-hybrid fitness for binding parS DNA” value was ≤ 0.2.

As for LFGV, the “one-hybrid fitness for binding parS DNA” value was ≤ 0.2.

For KRPP, the “one-hybrid fitness for binding parS DNA” value was ≤ 0.2.

On to WVLG, for which the “one-hybrid fitness for binding parS DNA” value is ≤ 0.2.

Turning to PANR, the “one-hybrid fitness for binding parS DNA” value was ≤ 0.2.

Regarding FPHC, the “one-hybrid fitness for binding parS DNA” value was ≤ 0.2.

On to RNRF, for which the “one-hybrid fitness for binding parS DNA” value is ≤ 0.2.

As for RIGK, the “one-hybrid fitness for binding parS DNA” value was ≤ 0.2.

Regarding VCVT, the “one-hybrid fitness for binding parS DNA” value is ≤ 0.2.

For QRTE, the “one-hybrid fitness for binding parS DNA” value was ≤ 0.2.

On to QTHP, for which the “one-hybrid fitness for binding parS DNA” value was ≤ 0.2.

Regarding HYTP, the “one-hybrid fitness for binding parS DNA” value is ≤ 0.2.

Turning to TMEN, the “one-hybrid fitness for binding parS DNA” value is ≤ 0.2.

Turning to ADLD, the “one-hybrid fitness for binding parS DNA” value is ≤ 0.2.

Take WASQ: the “one-hybrid fitness for binding parS DNA” value is ≤ 0.2.

Turning to EGNR, the “one-hybrid fitness for binding parS DNA” value was ≤ 0.2.

Turning to DPWT, the “one-hybrid fitness for binding parS DNA” value is ≤ 0.2.

As to RKSQ, the “one-hybrid fitness for binding parS DNA” value is ≤ 0.2.

Turning to PKQL, the “one-hybrid fitness for binding parS DNA” value is ≤ 0.2.

Turning to TESY, the “one-hybrid fitness for binding parS DNA” value is ≤ 0.2.

In the case of HRCS, the “one-hybrid fitness for binding parS DNA” value was 0.362.

Regarding VYTP, the “one-hybrid fitness for binding parS DNA” value is ≤ 0.2.

Turning to TQKY, the “one-hybrid fitness for binding parS DNA” value is ≤ 0.2.

For the variant GQMT, the “one-hybrid fitness for binding parS DNA” value was ≤ 0.2.

As for PHVS, the “one-hybrid fitness for binding parS DNA” value was ≤ 0.2.

Take MDWV: the “one-hybrid fitness for binding parS DNA” value is ≤ 0.2.

Regarding GTAR, the “one-hybrid fitness for binding parS DNA” value was ≤ 0.2.

As to PAEC, the “one-hybrid fitness for binding parS DNA” value was ≤ 0.2.

Consider WHEL, for which the “one-hybrid fitness for binding parS DNA” value is ≤ 0.2.

PNKC: the “one-hybrid fitness for binding parS DNA” value was ≤ 0.2.

For the variant HNKE, the “one-hybrid fitness for binding parS DNA” value was ≤ 0.2.

For the variant YQRV, the “one-hybrid fitness for binding parS DNA” value is ≤ 0.2.

For RFGS, the “one-hybrid fitness for binding parS DNA” value is 0.969.

On to KKRN, for which the “one-hybrid fitness for binding parS DNA” value was ≤ 0.2.

With PDSI, the “one-hybrid fitness for binding parS DNA” value is ≤ 0.2.

As for LFTT, the “one-hybrid fitness for binding parS DNA” value is ≤ 0.2.

As for KVYT, the “one-hybrid fitness for binding parS DNA” value is ≤ 0.2.

With FDHR, the “one-hybrid fitness for binding parS DNA” value was ≤ 0.2.

Take SRFE: the “one-hybrid fitness for binding parS DNA” value is ≤ 0.2.

In the case of VPKY, the “one-hybrid fitness for binding parS DNA” value was ≤ 0.2.

Consider LCLL, for which the “one-hybrid fitness for binding parS DNA” value was ≤ 0.2.

Take HSVE: the “one-hybrid fitness for binding parS DNA” value is ≤ 0.2.

As to CDQK, the “one-hybrid fitness for binding parS DNA” value is ≤ 0.2.

As for VLIF, the “one-hybrid fitness for binding parS DNA” value was ≤ 0.2.

CNPS: the “one-hybrid fitness for binding parS DNA” value was ≤ 0.2.

Turning to EVAR, the “one-hybrid fitness for binding parS DNA” value is ≤ 0.2.

For QNAH, the “one-hybrid fitness for binding parS DNA” value was ≤ 0.2.

On to CKRA, for which the “one-hybrid fitness for binding parS DNA” value was ≤ 0.2.

As for AGKR, the “one-hybrid fitness for binding parS DNA” value was ≤ 0.2.

As for NSRG, the “one-hybrid fitness for binding parS DNA” value was ≤ 0.2.

Turning to RCLM, the “one-hybrid fitness for binding parS DNA” value amounted to 0.383.

Consider RQQK, for which the “one-hybrid fitness for binding parS DNA” value is ≤ 0.2.

SQTD: the “one-hybrid fitness for binding parS DNA” value was ≤ 0.2.

As for AAYN, the “one-hybrid fitness for binding parS DNA” value was ≤ 0.2.

Consider AWPF, for which the “one-hybrid fitness for binding parS DNA” value is ≤ 0.2.

For the variant LMTL, the “one-hybrid fitness for binding parS DNA” value is ≤ 0.2.

As to DDTD, the “one-hybrid fitness for binding parS DNA” value is ≤ 0.2.

As to RDML, the “one-hybrid fitness for binding parS DNA” value was ≤ 0.2.

Turning to SALR, the “one-hybrid fitness for binding parS DNA” value was ≤ 0.2.

Take AGGV: the “one-hybrid fitness for binding parS DNA” value was ≤ 0.2.

With QESA, the “one-hybrid fitness for binding parS DNA” value was ≤ 0.2.

In the case of GYVT, the “one-hybrid fitness for binding parS DNA” value is ≤ 0.2.

For the variant KTSY, the “one-hybrid fitness for binding parS DNA” value is ≤ 0.2.

MSVV: the “one-hybrid fitness for binding parS DNA” value was ≤ 0.2.

Regarding EYYR, the “one-hybrid fitness for binding parS DNA” value was ≤ 0.2.

With KNKL, the “one-hybrid fitness for binding parS DNA” value is ≤ 0.2.

RSDW: the “one-hybrid fitness for binding parS DNA” value was ≤ 0.2.

With VWCG, the “one-hybrid fitness for binding parS DNA” value was ≤ 0.2.

Consider DQKY, for which the “one-hybrid fitness for binding parS DNA” value is ≤ 0.2.

RMYE: the “one-hybrid fitness for binding parS DNA” value is ≤ 0.2.

With RHYD, the “one-hybrid fitness for binding parS DNA” value is ≤ 0.2.

Turning to VQWT, the “one-hybrid fitness for binding parS DNA” value is ≤ 0.2.

With VYNY, the “one-hybrid fitness for binding parS DNA” value was ≤ 0.2.

On to DMNF, for which the “one-hybrid fitness for binding parS DNA” value is ≤ 0.2.

In the case of YQYS, the “one-hybrid fitness for binding parS DNA” value was ≤ 0.2.

Consider TNTS, for which the “one-hybrid fitness for binding parS DNA” value was ≤ 0.2.

As for CNIL, the “one-hybrid fitness for binding parS DNA” value was ≤ 0.2.

As to VASQ, the “one-hybrid fitness for binding parS DNA” value is ≤ 0.2.

In the case of QRPG, the “one-hybrid fitness for binding parS DNA” value was ≤ 0.2.

On to RRAC, for which the “one-hybrid fitness for binding parS DNA” value turned out to be 0.597.

Take TTNG: the “one-hybrid fitness for binding parS DNA” value was ≤ 0.2.

Take LKKV: the “one-hybrid fitness for binding parS DNA” value is ≤ 0.2.

Take IGKL: the “one-hybrid fitness for binding parS DNA” value was ≤ 0.2.

Take HASA: the “one-hybrid fitness for binding parS DNA” value is ≤ 0.2.

Consider YDIE, for which the “one-hybrid fitness for binding parS DNA” value was ≤ 0.2.

With MMNC, the “one-hybrid fitness for binding parS DNA” value is ≤ 0.2.

As for TDRR, the “one-hybrid fitness for binding parS DNA” value is ≤ 0.2.

With RFPR, the “one-hybrid fitness for binding parS DNA” value is ≤ 0.2.

As for LNNA, the “one-hybrid fitness for binding parS DNA” value is ≤ 0.2.

With SNVS, the “one-hybrid fitness for binding parS DNA” value was ≤ 0.2.

On to QLGT, for which the “one-hybrid fitness for binding parS DNA” value was ≤ 0.2.

As for PRFV, the “one-hybrid fitness for binding parS DNA” value was ≤ 0.2.

For the variant ASES, the “one-hybrid fitness for binding parS DNA” value was ≤ 0.2.

As to AICA, the “one-hybrid fitness for binding parS DNA” value is ≤ 0.2.

On to HILT, for which the “one-hybrid fitness for binding parS DNA” value was ≤ 0.2.

GAQA: the “one-hybrid fitness for binding parS DNA” value is ≤ 0.2.

As for ARAH, the “one-hybrid fitness for binding parS DNA” value is ≤ 0.2.

For DAIS, the “one-hybrid fitness for binding parS DNA” value is ≤ 0.2.

For HLQW, the “one-hybrid fitness for binding parS DNA” value was ≤ 0.2.

For the variant QYAV, the “one-hybrid fitness for binding parS DNA” value is ≤ 0.2.

With DTSW, the “one-hybrid fitness for binding parS DNA” value was ≤ 0.2.

As to EDSW, the “one-hybrid fitness for binding parS DNA” value is ≤ 0.2.

In the case of RLVI, the “one-hybrid fitness for binding parS DNA” value was ≤ 0.2.

Consider WPIG, for which the “one-hybrid fitness for binding parS DNA” value was ≤ 0.2.

As to DSYP, the “one-hybrid fitness for binding parS DNA” value is ≤ 0.2.

Turning to AVQF, the “one-hybrid fitness for binding parS DNA” value is ≤ 0.2.

For VPWF, the “one-hybrid fitness for binding parS DNA” value was ≤ 0.2.

On to HYCC, for which the “one-hybrid fitness for binding parS DNA” value was ≤ 0.2.

EKNC: the “one-hybrid fitness for binding parS DNA” value was ≤ 0.2.

As to YCNT, the “one-hybrid fitness for binding parS DNA” value is ≤ 0.2.

With PEAK, the “one-hybrid fitness for binding parS DNA” value is ≤ 0.2.

DPCA: the “one-hybrid fitness for binding parS DNA” value is ≤ 0.2.

Regarding NVHP, the “one-hybrid fitness for binding parS DNA” value is ≤ 0.2.

For the variant LYMR, the “one-hybrid fitness for binding parS DNA” value is ≤ 0.2.

As for PRDV, the “one-hybrid fitness for binding parS DNA” value was ≤ 0.2.

On to RRIF, for which the “one-hybrid fitness for binding parS DNA” value is ≤ 0.2.

As to DKRC, the “one-hybrid fitness for binding parS DNA” value is ≤ 0.2.

Turning to ECIG, the “one-hybrid fitness for binding parS DNA” value is ≤ 0.2.

TTGC: the “one-hybrid fitness for binding parS DNA” value was ≤ 0.2.

For CQRR, the “one-hybrid fitness for binding parS DNA” value was ≤ 0.2.

For SILD, the “one-hybrid fitness for binding parS DNA” value was ≤ 0.2.

For SACT, the “one-hybrid fitness for binding parS DNA” value was ≤ 0.2.

Take KSYS: the “one-hybrid fitness for binding parS DNA” value was ≤ 0.2.

As for YMCL, the “one-hybrid fitness for binding parS DNA” value was ≤ 0.2.

As to ILQK, the “one-hybrid fitness for binding parS DNA” value was ≤ 0.2.

With FPSH, the “one-hybrid fitness for binding parS DNA” value is ≤ 0.2.

As for CSSM, the “one-hybrid fitness for binding parS DNA” value was ≤ 0.2.

NTVA: the “one-hybrid fitness for binding parS DNA” value was ≤ 0.2.

As for EIDN, the “one-hybrid fitness for binding parS DNA” value was ≤ 0.2.

Regarding GGLC, the “one-hybrid fitness for binding parS DNA” value was ≤ 0.2.

KSCV: the “one-hybrid fitness for binding parS DNA” value is ≤ 0.2.

As for IRKR, the “one-hybrid fitness for binding parS DNA” value was ≤ 0.2.

On to SWNW, for which the “one-hybrid fitness for binding parS DNA” value is ≤ 0.2.

For the variant WAKY, the “one-hybrid fitness for binding parS DNA” value is ≤ 0.2.

On to KTTW, for which the “one-hybrid fitness for binding parS DNA” value was ≤ 0.2.

With FTYC, the “one-hybrid fitness for binding parS DNA” value was ≤ 0.2.

Regarding KVHI, the “one-hybrid fitness for binding parS DNA” value is ≤ 0.2.

For the origin of these results see a collection of fitness landscapes (doi:10.1016/j.celrep.2020.107928).
